{"source": "paper PMC4336329", "about": "(PLoS ONE, 2015)", "note": "Screen size: about 310,000 compounds; about 14,000 (4.5%) showed an effect of 50% or more. The effect is printed as a negative number. This is one part of the list."}
{"biological_target": "human ether-à-go-go-related gene (hERG) potassium channel (human, UniProt Q12809)", "sequence (Q12809 whole entry, looked up)": "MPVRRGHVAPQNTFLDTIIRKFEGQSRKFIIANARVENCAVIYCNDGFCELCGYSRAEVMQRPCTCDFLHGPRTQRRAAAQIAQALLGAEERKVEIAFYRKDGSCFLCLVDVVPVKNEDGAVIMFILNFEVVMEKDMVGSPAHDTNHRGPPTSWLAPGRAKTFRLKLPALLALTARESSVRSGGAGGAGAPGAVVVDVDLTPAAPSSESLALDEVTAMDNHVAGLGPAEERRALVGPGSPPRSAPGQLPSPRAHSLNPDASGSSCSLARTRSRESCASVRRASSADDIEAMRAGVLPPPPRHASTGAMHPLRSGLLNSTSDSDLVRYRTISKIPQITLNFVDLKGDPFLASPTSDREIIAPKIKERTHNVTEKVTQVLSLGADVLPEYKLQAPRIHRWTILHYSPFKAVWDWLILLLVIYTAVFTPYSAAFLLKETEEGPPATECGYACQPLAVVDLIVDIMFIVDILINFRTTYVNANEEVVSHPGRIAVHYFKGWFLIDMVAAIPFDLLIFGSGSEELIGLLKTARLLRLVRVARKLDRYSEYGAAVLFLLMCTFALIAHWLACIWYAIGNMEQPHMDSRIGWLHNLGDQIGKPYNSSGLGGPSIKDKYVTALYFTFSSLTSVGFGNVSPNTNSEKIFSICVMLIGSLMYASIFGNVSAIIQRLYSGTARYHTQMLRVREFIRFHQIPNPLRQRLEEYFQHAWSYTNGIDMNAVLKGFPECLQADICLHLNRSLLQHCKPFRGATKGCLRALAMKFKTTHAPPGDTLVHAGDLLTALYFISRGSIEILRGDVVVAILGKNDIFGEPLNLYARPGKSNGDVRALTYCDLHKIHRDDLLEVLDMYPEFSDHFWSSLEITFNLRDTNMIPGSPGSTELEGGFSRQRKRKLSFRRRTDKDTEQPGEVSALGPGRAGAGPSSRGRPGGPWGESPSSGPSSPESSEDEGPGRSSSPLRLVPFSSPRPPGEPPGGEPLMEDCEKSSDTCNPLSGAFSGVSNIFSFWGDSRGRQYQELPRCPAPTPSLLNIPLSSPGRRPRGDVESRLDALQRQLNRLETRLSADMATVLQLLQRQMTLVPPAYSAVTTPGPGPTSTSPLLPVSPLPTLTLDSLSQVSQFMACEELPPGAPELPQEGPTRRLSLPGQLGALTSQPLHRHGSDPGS", "test": "primary screen, population patch clamp on CHO cells stably expressing hERG", "units": {"hERG current change (%, negative = inhibition) at 10uM": "%"}}
{"compound": "COc1ccc(OC)c(C(O)c2coc3ccc(O)c(CN(C)C)c23)c1", "note": "(stereo not drawn);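 further: peak tail current of the secondary pulse compared with the same well before compound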", "hERG current change (%, negative = inhibition) at 10uM": -17}
{"compound": "Clc1ccccc1CN1CCSCC1", "hERG current change (%, negative = inhibition) at 10uM": 8.01}
{"compound": "C=CCc1cc(S(=O)(=O)c2ccc(O)c(CC=C)c2)ccc1O", "hERG current change (%, negative = inhibition) at 10uM": 7.22}
{"compound": "Cc1ccc[n+](Cc2ccc([N+](=O)[O-])cc2)c1.[Br-]", "hERG current change (%, negative = inhibition) at 10uM": 27.1}
{"compound": "O=C(NCc1cccc(F)c1F)C1CCC(=O)N(C2CCCCCC2)C1", "note": "(stereo not drawn)", "hERG current change (%, negative = inhibition) at 10uM": -5.68}
{"compound": "CCc1nnc(NC(=O)Cc2ccc(OC)c(OC)c2)s1", "hERG current change (%, negative = inhibition) at 10uM": 13.6}
{"compound": "Cn1c(COc2ccccc2Br)nc2ccccc21", "hERG current change (%, negative = inhibition) at 10uM": 7.18}
{"compound": "C/C(CC(=O)NC1C2CC3CC(C2)CC1C3)=N\\NC(=O)Cc1cccs1", "note": "(stereo not drawn)", "hERG current change (%, negative = inhibition) at 10uM": 3.72}
{"compound": "CC(=O)c1ccc(NC(=O)c2cc(C)no2)cc1", "hERG current change (%, negative = inhibition) at 10uM": 8.25}
{"compound": "CCN(CC)c1ccc(N=Cc2ccccc2[N+](=O)[O-])cc1", "hERG current change (%, negative = inhibition) at 10uM": -5.7}
{"compound": "CCC(=O)Nc1nnc(SCCOC)s1", "hERG current change (%, negative = inhibition) at 10uM": 2.56}
{"compound": "CCNC(=S)NNC(=O)c1cc(Br)cs1", "hERG current change (%, negative = inhibition) at 10uM": 2.59}
{"compound": "Cc1ccc(N2CCCn3c2cc(C)c(C#N)c3=O)cc1C", "hERG current change (%, negative = inhibition) at 10uM": -21.4}
{"compound": "Cc1nc(CCNC(=O)c2ccccc2)cs1", "hERG current change (%, negative = inhibition) at 10uM": 24.3}
{"compound": "CCOCCCNC(=S)NC1CC2CCC(C1)N2Cc1ccccc1", "note": "(stereo not drawn)", "hERG current change (%, negative = inhibition) at 10uM": -23}
{"compound": "COC(=O)c1ccccc1NC(=S)N(Cc1ccc2c(c1)OCO2)Cc1cc2cccc(C)c2[nH]c1=O", "hERG current change (%, negative = inhibition) at 10uM": 1.24}
{"compound": "COc1ccc(-n2c(C)cc3cc(OC(C)=O)ccc32)cc1", "hERG current change (%, negative = inhibition) at 10uM": 10.5}
{"compound": "COc1ccc(N2C(=O)c3cccc4cccc(c34)C2=O)cc1", "hERG current change (%, negative = inhibition) at 10uM": 19.3}
{"compound": "COC(=O)c1cccc(Nc2cc(C)nc(-c3ccccc3O)n2)c1", "hERG current change (%, negative = inhibition) at 10uM": 10.2}
{"compound": "O=C(/C=C/c1cccc(C(F)(F)F)c1)Nc1cccc(C(F)(F)F)c1", "hERG current change (%, negative = inhibition) at 10uM": 12.4}
{"compound": "Cc1ccc([N+](=O)[O-])c2c1C(N1CCCC1)C(C)(C)O2", "note": "(stereo not drawn)", "hERG current change (%, negative = inhibition) at 10uM": 11.3}
{"compound": "N=C1/C(=C\\c2coc3ccc(O)cc3c2=O)C(=O)N=C2SC=CN12", "hERG current change (%, negative = inhibition) at 10uM": -4.16}
{"compound": "Cc1cccc(/C=N/NC(=O)c2cc(Br)ccc2O)n1", "hERG current change (%, negative = inhibition) at 10uM": -4.99}
{"compound": "CCCCC(=O)N1C/C=C\\C(c2ccc(OC)cc2)N(Cc2ccc(F)cc2)C(=O)[C@H]1Cc1ccccc1", "note": "(stereo partly drawn)", "hERG current change (%, negative = inhibition) at 10uM": 7.51}
{"compound": "COc1ccc(NC(=S)NCC(O)c2ccccc2)c(OC)c1", "note": "(stereo not drawn)", "hERG current change (%, negative = inhibition) at 10uM": 3.4}
{"compound": "Nn1c(SCC(=O)Nc2c(F)cc(F)cc2Br)nnc1C1CCCCC1", "hERG current change (%, negative = inhibition) at 10uM": 3.21}
{"compound": "CCC(C(=O)NCCCc1ccccc1)n1nc(C)c2c(C)n(-c3ccccc3)nc2c1=O", "note": "(stereo not drawn)", "hERG current change (%, negative = inhibition) at 10uM": -35.9}
{"compound": "Cc1ccc(NS(=O)(=O)c2cc(C(=O)N3CCOCC3)ccc2C)cc1C", "hERG current change (%, negative = inhibition) at 10uM": -5.85}
{"compound": "COc1ccc(S(=O)(=O)N2CCOCC2)cc1NC(=O)CO/N=C/c1ccccc1OC(F)F", "hERG current change (%, negative = inhibition) at 10uM": -2.92}
{"compound": "COc1ccc(/C=C2/SC(c3ccc(C)cc3)=NC2=O)cc1OC", "hERG current change (%, negative = inhibition) at 10uM": 8.4}
{"compound": "COc1ccccc1-c1nnc(SCC(=O)NNC(=O)c2ccccc2F)n1C", "hERG current change (%, negative = inhibition) at 10uM": 5.84}
{"compound": "COCCn1c(=NC(=O)c2ccc(S(=O)(=O)N3CCc4ccccc4C3)cc2)sc2cc(OC)ccc21", "hERG current change (%, negative = inhibition) at 10uM": 15.1}
{"compound": "CCc1cc(C(=O)NCC(C)(C)N2CCOCC2)sc1C", "hERG current change (%, negative = inhibition) at 10uM": 0.751}
{"compound": "COc1cccc(NC(=O)COc2cccc(-n3cnnn3)c2)c1", "hERG current change (%, negative = inhibition) at 10uM": -50.8}
{"compound": "CC(CCc1ccco1)NC(=O)CCc1nnc2ccc(NCc3ccccc3)nn12", "note": "(stereo not drawn)", "hERG current change (%, negative = inhibition) at 10uM": 8.48}
{"compound": "Cn1c(CNC(=O)c2ccccc2F)nnc1SCc1nc2ccccc2c(=O)[nH]1", "hERG current change (%, negative = inhibition) at 10uM": 14.4}
{"compound": "CCOc1ccccc1OCC(=O)OCC(=O)Nc1ncc(Cl)cc1Cl", "hERG current change (%, negative = inhibition) at 10uM": 8.39}
{"compound": "CC(=O)Oc1ccc2oc(C)c(C(=O)N3CCOCC3)c2c1", "hERG current change (%, negative = inhibition) at 10uM": -8.91}
{"compound": "CCOc1ccc2c(c1)OC(c1ccc(C)cc1)(C(F)(F)F)NC2=O", "note": "(stereo not drawn)", "hERG current change (%, negative = inhibition) at 10uM": 5.42}
{"compound": "Cc1ccc(S(=O)(=O)N(C)c2ccc(C(=O)NCc3ccccc3F)cc2)cc1", "hERG current change (%, negative = inhibition) at 10uM": -17.1}
{"compound": "CCOC(=O)c1oc2ccc(CNCCO)c(Cl)c2c1C", "hERG current change (%, negative = inhibition) at 10uM": 3.43}
{"compound": "CCCOc1cccc(C2C(C(=O)c3ccc(C)o3)=C(O)C(=O)N2c2nc(C)c(C(C)=O)s2)c1", "note": "(stereo not drawn)", "hERG current change (%, negative = inhibition) at 10uM": 9.66}
{"compound": "O=C(CSc1nnc(-c2cccs2)o1)N1CCCc2ccccc21", "hERG current change (%, negative = inhibition) at 10uM": 3.02}
{"compound": "CC(OC(=O)c1nccnc1N)C(=O)Nc1ccc(S(=O)(=O)N2CCCC2)cc1", "note": "(stereo not drawn)", "hERG current change (%, negative = inhibition) at 10uM": -11}
{"compound": "Cc1cc(C)n(-c2ccc(F)cc2CN2CCN(Cc3ccccc3)C(CCO)C2)n1", "note": "(stereo not drawn)", "hERG current change (%, negative = inhibition) at 10uM": -37.2}
